Experimental findings from patent US6348581 are described below.

The test addresses tumor-associated glycoprotein TAG-72 (human). The experiment in a line: Scatchard analysis, solid-phase assay on TAG-72-coated plates with 125I-labeled goat anti-human IgG probe; mean of 8 analyses.

B1: humanized CC49 antibody CC49 HuVH/HuVK (antibody, human IgG1, V domains shown)
VH: [sequence of about 120 residues not given]
VL: DIQMTQSPSSLSASVGDRVTITCKSSQSLLYSGNQKNYLAWYQQTPGKAPKLLIYWASARESGVPSRFSGSGSGTDYTFTISSLQPEDIATYYCQQYYSYPLTFGQGTKLQIT
The molecule B1 returned a Ka of 4.27e+09 M⁻¹.
